Paper PMC9911399, “Two distinct binding modes provide the RNA-binding protein RbFox with extraordinary sequence specificity”
Changes are numbered by the printed parent chain; changes in the protein carry UniProt numbers. The list shows a part of the results.

T1: RBFOX1 RRM RbFoxmut (Fox-RRM*) (Homo sapiens, UniProt Q9NWB1 109-208, R118D;E147R;N151S;E152T)
T1 sequence: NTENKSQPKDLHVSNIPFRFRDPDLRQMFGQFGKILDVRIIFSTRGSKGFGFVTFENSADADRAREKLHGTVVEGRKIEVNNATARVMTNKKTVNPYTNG

B1: UCCACCU (DNA:RNA)
RNA: GGGAGACCGGAAUUCAGAUUGUCCUCCACCUUUAAAUCCCGUCGUAGCCACCA
DNA 1: CAATCTGAATTCCGGTCTCCC
DNA 2: TGGTGGCTACGACGGGATT
B2: GACCUUA (DNA:RNA)
RNA: B1 RNA with U25G, C26A, A28C, C29U, C30U, U31A
DNA 1: CAATCTGAATTCCGGTCTCCC
DNA 2: TGGTGGCTACGACGGGATT
B3: GGACGUC (DNA:RNA)
RNA: GGGAGACCGGAAUUCAGAUUGUCCGGACGUCUUAAAUCCCGUCGUAGCCACCA
DNA 1: CAATCTGAATTCCGGTCTCCC
DNA 2: TGGTGGCTACGACGGGATT
B4: GCCCAUU (DNA:RNA)
RNA: B3 RNA with G26C, A27C, G29A, C31U
DNA 1: CAATCTGAATTCCGGTCTCCC
DNA 2: TGGTGGCTACGACGGGATT
B5: ACGACAU (DNA:RNA)
RNA: B1 RNA with U25A, C27G, C30A
DNA 1: CAATCTGAATTCCGGTCTCCC
DNA 2: TGGTGGCTACGACGGGATT
B6: ACCACAC (DNA:RNA)
RNA: B1 RNA with U25A, C30A, U31C
DNA 1: CAATCTGAATTCCGGTCTCCC
DNA 2: TGGTGGCTACGACGGGATT
B7: UGGGUGC (DNA:RNA)
RNA: B3 RNA with G25U, A27G, C28G, G29U, U30G
DNA 1: CAATCTGAATTCCGGTCTCCC
DNA 2: TGGTGGCTACGACGGGATT
B8: AGAUACG (DNA:RNA)
RNA: B3 RNA with G25A, C28U, G29A, U30C, C31G
DNA 1: CAATCTGAATTCCGGTCTCCC
DNA 2: TGGTGGCTACGACGGGATT
B9: GGCACUG (DNA:RNA)
RNA: B3 RNA with A27C, C28A, G29C, C31G
DNA 1: CAATCTGAATTCCGGTCTCCC
DNA 2: TGGTGGCTACGACGGGATT
B10: AUCUGCC (DNA:RNA)
RNA: B3 RNA with G25A, G26U, A27C, C28U, U30C
DNA 1: CAATCTGAATTCCGGTCTCCC
DNA 2: TGGTGGCTACGACGGGATT
B11: ACAUUUG (DNA:RNA)
RNA: B3 RNA with G25A, G26C, C28U, G29U, C31G
DNA 1: CAATCTGAATTCCGGTCTCCC
DNA 2: TGGTGGCTACGACGGGATT
B12: CUUCUUA (DNA:RNA)
RNA: B3 RNA with G25C, G26U, A27U, G29U, C31A
DNA 1: CAATCTGAATTCCGGTCTCCC
DNA 2: TGGTGGCTACGACGGGATT
B13: UGUAAAA (DNA:RNA)
RNA: B1 RNA with C26G, C27U, C29A, C30A, U31A
DNA 1: CAATCTGAATTCCGGTCTCCC
DNA 2: TGGTGGCTACGACGGGATT
B14: UCUCGAG (DNA:RNA)
RNA: B3 RNA with G25U, G26C, A27U, U30A, C31G
DNA 1: CAATCTGAATTCCGGTCTCCC
DNA 2: TGGTGGCTACGACGGGATT
B15: GGUUUCU (DNA:RNA)
RNA: B3 RNA with A27U, C28U, G29U, U30C, C31U
DNA 1: CAATCTGAATTCCGGTCTCCC
DNA 2: TGGTGGCTACGACGGGATT
B16: CGAUCAC (DNA:RNA)
RNA: B3 RNA with G25C, C28U, G29C, U30A
DNA 1: CAATCTGAATTCCGGTCTCCC
DNA 2: TGGTGGCTACGACGGGATT
B17: UCUGAUG (DNA:RNA)
RNA: B1 RNA with C27U, A28G, C29A, C30U, U31G
DNA 1: CAATCTGAATTCCGGTCTCCC
DNA 2: TGGTGGCTACGACGGGATT
B18: GCGGUGA (DNA:RNA)
RNA: B3 RNA with G26C, A27G, C28G, G29U, U30G, C31A
DNA 1: CAATCTGAATTCCGGTCTCCC
DNA 2: TGGTGGCTACGACGGGATT
B19: GUCGUGU (DNA:RNA)
RNA: B1 RNA with U25G, C26U, A28G, C29U, C30G
DNA 1: CAATCTGAATTCCGGTCTCCC
DNA 2: TGGTGGCTACGACGGGATT
B20: UGGGUCU (DNA:RNA)
RNA: B1 RNA with C26G, C27G, A28G, C29U
DNA 1: CAATCTGAATTCCGGTCTCCC
DNA 2: TGGTGGCTACGACGGGATT
B21: AUUUAUA (DNA:RNA)
RNA: B3 RNA with G25A, G26U, A27U, C28U, G29A, C31A
DNA 1: CAATCTGAATTCCGGTCTCCC
DNA 2: TGGTGGCTACGACGGGATT
B22: AUUACCG (DNA:RNA)
RNA: B1 RNA with U25A, C26U, C27U, U31G
DNA 1: CAATCTGAATTCCGGTCTCCC
DNA 2: TGGTGGCTACGACGGGATT
B23: UAUGGGU (DNA:RNA)
RNA: B1 RNA with C26A, C27U, A28G, C29G, C30G
DNA 1: CAATCTGAATTCCGGTCTCCC
DNA 2: TGGTGGCTACGACGGGATT
B24: GAACUCU (DNA:RNA)
RNA: B3 RNA with G26A, G29U, U30C, C31U
DNA 1: CAATCTGAATTCCGGTCTCCC
DNA 2: TGGTGGCTACGACGGGATT
B25: GUCAGUG (DNA:RNA)
RNA: B3 RNA with G26U, A27C, C28A, C31G
DNA 1: CAATCTGAATTCCGGTCTCCC
DNA 2: TGGTGGCTACGACGGGATT
B26: ACGCGAU (DNA:RNA)
RNA: B3 RNA with G25A, G26C, A27G, U30A, C31U
DNA 1: CAATCTGAATTCCGGTCTCCC
DNA 2: TGGTGGCTACGACGGGATT
B27: GUUUGGA (DNA:RNA)
RNA: B3 RNA with G26U, A27U, C28U, U30G, C31A
DNA 1: CAATCTGAATTCCGGTCTCCC
DNA 2: TGGTGGCTACGACGGGATT
B28: UGCAGAG (DNA:RNA)
RNA: B1 RNA with C26G, C29G, C30A, U31G
DNA 1: CAATCTGAATTCCGGTCTCCC
DNA 2: TGGTGGCTACGACGGGATT
B29: CCGGUUA (DNA:RNA)
RNA: B3 RNA with G25C, G26C, A27G, C28G, G29U, C31A
DNA 1: CAATCTGAATTCCGGTCTCCC
DNA 2: TGGTGGCTACGACGGGATT
B30: AGUCGGU (DNA:RNA)
RNA: B3 RNA with G25A, A27U, U30G, C31U
DNA 1: CAATCTGAATTCCGGTCTCCC
DNA 2: TGGTGGCTACGACGGGATT
B31: GACCGGU (DNA:RNA)
RNA: B3 RNA with G26A, A27C, U30G, C31U
DNA 1: CAATCTGAATTCCGGTCTCCC
DNA 2: TGGTGGCTACGACGGGATT

biological target: T1, RBFOX1 RRM RbFoxmut (Fox-RRM*); assay: EMSA; HiTS-Eq, 1 nM pool, 10 min; buffer printed only for the single-RNA assays: 10 mM Tris pH 7.5, 150 mM NaCl, 3.4 mM EDTA, 0.001% NP-40, 30 C; conditions: tags: His6 N-terminal (pET28a); label: 5' 32P
How it was run: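 A pool of RNA with 7 randomized nucleotides, 5′-radiolabelled and with DNA-annealed flanks, was equilibrated at 1 nM for 10 min in 50 µL with purified RbFox RRM, wild type or mutant, across increasing protein concentrations. Free RNA was separated by 8% native PAGE, excised, reverse-transcribed, barcoded by PCR and sequenced. Relative association constants were obtained from read-count changes of each RNA species versus the control reaction and normalised to the cognate motif.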

Row | Binder | binding signal
1 | B1 | 0.0768 KA relative to UGCAUGU
2 | B2 | 0.0719 KA relative to UGCAUGU
3 | B3 | 0.147 KA relative to UGCAUGU
4 | B4 | 0.0877 KA relative to UGCAUGU
5 | B5 | 0.0911 KA relative to UGCAUGU
6 | B6 | 0.104 KA relative to UGCAUGU
7 | B7 | 0.195 KA relative to UGCAUGU
8 | B8 | 0.123 KA relative to UGCAUGU
9 | B9 | 0.109 KA relative to UGCAUGU
10 | B10 | 0.191 KA relative to UGCAUGU
11 | B11 | 0.0885 KA relative to UGCAUGU
12 | B12 | 0.114 KA relative to UGCAUGU
13 | B13 | 0.0891 KA relative to UGCAUGU
14 | B14 | 0.128 KA relative to UGCAUGU
15 | B15 | 0.138 KA relative to UGCAUGU
16 | B16 | 0.0607 KA relative to UGCAUGU

Row | Binder | binding signal
17 | B17 | 0.116 KA relative to UGCAUGU
18 | B18 | 0.125 KA relative to UGCAUGU
19 | B19 | 0.187 KA relative to UGCAUGU
20 | B20 | 0.118 KA relative to UGCAUGU
21 | B21 | 0.169 KA relative to UGCAUGU
22 | B22 | 0.115 KA relative to UGCAUGU
23 | B23 | 0.108 KA relative to UGCAUGU
24 | B24 | 0.053 KA relative to UGCAUGU
25 | B25 | 0.133 KA relative to UGCAUGU
26 | B26 | 0.0702 KA relative to UGCAUGU
27 | B27 | 0.0824 KA relative to UGCAUGU
28 | B28 | 0.126 KA relative to UGCAUGU
29 | B29 | 0.081 KA relative to UGCAUGU
30 | B30 | 0.105 KA relative to UGCAUGU
31 | B31 | 0.0702 KA relative to UGCAUGU
